# Test results as given in article PMC4336329 (PLoS ONE, 2015).
# In all, about 310,000 compounds went through this assay and about 14,000 (4.5%) showed an effect of 50% or more. The effect is printed as a negative number. The list shows a part of the results.
# Molecular target: human ether-à-go-go-related gene (hERG) potassium channel (human, UniProt Q12809)
# Experiment: primary screen, population patch clamp on CHO cells stably expressing hERG
# 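Also: peak tail current of the secondary pulse compared with the same well before compound.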
# Sequence of human ether-à-go-go-related gene (hERG) potassium channel (Q12809 whole entry, looked up): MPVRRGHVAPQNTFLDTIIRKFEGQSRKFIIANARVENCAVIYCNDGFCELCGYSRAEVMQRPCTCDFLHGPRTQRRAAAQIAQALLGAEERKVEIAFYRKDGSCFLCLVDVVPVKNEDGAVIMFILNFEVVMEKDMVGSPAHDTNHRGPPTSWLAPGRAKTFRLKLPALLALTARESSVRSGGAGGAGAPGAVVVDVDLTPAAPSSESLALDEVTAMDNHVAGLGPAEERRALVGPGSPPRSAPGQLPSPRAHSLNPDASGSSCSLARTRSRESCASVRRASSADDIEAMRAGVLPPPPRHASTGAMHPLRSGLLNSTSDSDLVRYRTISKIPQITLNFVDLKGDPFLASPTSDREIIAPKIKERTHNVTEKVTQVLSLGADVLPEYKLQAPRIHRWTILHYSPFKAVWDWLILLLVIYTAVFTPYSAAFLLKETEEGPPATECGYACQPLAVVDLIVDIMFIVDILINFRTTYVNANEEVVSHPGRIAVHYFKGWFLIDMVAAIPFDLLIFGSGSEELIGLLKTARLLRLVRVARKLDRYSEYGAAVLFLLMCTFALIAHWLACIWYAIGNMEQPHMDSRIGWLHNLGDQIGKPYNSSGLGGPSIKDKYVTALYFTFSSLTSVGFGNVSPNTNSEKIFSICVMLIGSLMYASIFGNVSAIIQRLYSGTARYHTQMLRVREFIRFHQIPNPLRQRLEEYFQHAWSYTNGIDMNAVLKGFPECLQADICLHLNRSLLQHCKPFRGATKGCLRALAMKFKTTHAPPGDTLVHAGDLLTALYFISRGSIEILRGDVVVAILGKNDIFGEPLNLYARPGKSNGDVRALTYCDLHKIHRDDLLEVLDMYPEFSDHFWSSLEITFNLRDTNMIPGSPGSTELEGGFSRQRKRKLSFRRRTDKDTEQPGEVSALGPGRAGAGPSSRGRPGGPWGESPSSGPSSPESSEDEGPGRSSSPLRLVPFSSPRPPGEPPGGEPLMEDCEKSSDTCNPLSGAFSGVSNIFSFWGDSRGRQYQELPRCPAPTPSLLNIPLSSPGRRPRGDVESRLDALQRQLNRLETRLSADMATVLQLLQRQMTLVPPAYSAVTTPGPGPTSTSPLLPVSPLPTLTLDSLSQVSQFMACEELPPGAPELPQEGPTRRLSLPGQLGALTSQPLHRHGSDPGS
row,Structure (SMILES),"hERG current change (%, negative = inhibition) at 10uM [%]"
1,COc1cccc(NC(=O)c2ccc(-n3cccn3)nc2)c1,10.9
2,Cc1nc(SCC(=O)O)c(C#N)c2c1CCCC2,-10.9
3,O=C(c1ccc(S(=O)(=O)Nc2ccccc2)cc1)N1CCCCCCC1,2.5
4,COc1ccc(/C=C(\NC(=O)c2ccc(OC)cc2)C(=O)Nc2cccc(C(=O)O)c2)cc1,8.54
5,O=C(NCCCO)c1cc2ccccc2[nH]1,4.15
6,CC(=O)c1ccc(NC(=O)CNCC(c2ccccc2)N(C)C)cc1.O=C(O)C(=O)O (stereo not shown),2.26
7,COc1cccc(OCc2cc(C(=O)N(C)Cc3nc4ccccc4[nH]3)no2)c1,-37.1
8,CCN(CC)CCCNC(=O)CSc1nc(-c2cccs2)cc(C(F)(F)F)n1,-33.4
9,O=C(NCCc1ccccc1)c1ccccc1SCC(=O)N1CCCC1,-51.3
10,COc1ccc(C(=O)NCCN2CCCC2)cc1OC.Cl,1.55
11,CCCOc1ccc(NC(=O)c2c(-c3ccccc3)noc2C)cc1,-11.7
12,O=C(c1cccnc1)N1CCN(S(=O)(=O)c2ccc(Cl)cc2)CC1,-22.1
13,C=CCN(CC=C)CCCOc1ccccc1C(=O)OC.O=C(O)C(=O)O,-72.4
14,O=C(N/N=C/c1ccc(N2CCOCC2)cc1)c1ccc(O)cc1,9.61
15,COc1cc(C(=O)NCCCN2CCCC2=O)cc(OC)c1OC,-2.96
16,O=C(NCCCNC(=O)c1cnccn1)c1ccc(Cl)c(Cl)c1,-15.6
17,Cc1ccc2cc(CCNC(=O)c3c(-c4ccccc4Cl)noc3C)c(=O)[nH]c2c1,1.48
18,COc1ccc(/C=N/N2C(=O)C3C4C=CC(CC4)C3C2=O)c(OC)c1 (stereo not shown),7.79
19,COc1ccc2cc3cc(C(=O)NCc4ccc5c(c4)OCO5)oc3nc2c1,5.61
20,CC(C)(C)c1ccc(Cn2nc(CC(=O)O)c3ccccc3c2=O)cc1,16.9
21,OC(COC(c1ccccc1)c1ccccc1)CN1CCc2ccccc2C1 (stereo not shown),-76.9
22,Cc1ccccc1NS(=O)(=O)c1cc2c3c(c1)CC(=O)N3CCC2,-13.6

row,Structure (SMILES),"hERG current change (%, negative = inhibition) at 10uM [%]"
1,Cc1cccc(C2c3[nH]c4ccccc4c3CCN2Cc2cnn(-c3ccc(F)cc3)c2)n1 (stereo not shown),1.48
2,OC1=C(O)c2nc3cc(C(F)(F)F)ccc3nc21,0.992
3,CN(C)C(=O)N1CCC(C(=O)NCc2ccc(F)cc2Cl)CC1,3.93
4,COC(=O)c1c(NC(=O)CN2CCN(c3ccccc3Cl)CC2)sc(C)c1C,0.368
5,O=C(Cc1ccc(NC2=NC3CS(=O)(=O)CC3S2)cc1)N1CCN(c2ccc(F)cc2)CC1 (stereo not shown),20.2
6,CCC(C(=O)NNC(=O)c1cnccn1)c1ccccc1 (stereo not shown),9.26
7,Cc1oc(-c2ccccc2F)nc1CS(=O)CC(=O)NCc1cccs1 (stereo not shown),-12
8,O=C(CCN1C(=O)/C(=C\c2ccc(F)cc2)SC1=S)Nc1ccccc1,21.5
9,Cc1ccccc1N1CC(C(=O)Nc2ccncc2)CC1=O (stereo not shown),-8.15
10,CCOC(=O)NN1C(=O)c2ccccc2NC1c1ccc(OC)cc1OC (stereo not shown),-4.55
11,Cc1cc(-c2nn(C)c(=O)c3ccccc23)cc(C)c1O,0.868
12,Cc1cc(C)c(C(=O)COC(=O)c2cc([N+](=O)[O-])ccc2NCCO)cc1C,-6.63
13,CC(C)N(C(=O)COC(=O)c1ccc(Cl)c(S(N)(=O)=O)c1)C(C)C,16.8
14,Cc1cc(CNC(=O)c2cccc([N+](=O)[O-])c2C)c2ccccc2n1,-53
15,CC(=O)C1=C(O)C(=O)N(Cc2ccccc2)C1c1ccc(N(C)C)cc1 (stereo not shown),14.5
16,O=c1c2c3c(sc2ncn1/N=C/c1ccc(Br)o1)CCCC3,-5.03
17,CC(C)Nc1nc(SC(C)C(=O)Nc2ccccc2)nc(N(C)C)n1 (stereo not shown),-51.4
18,CCN(Cc1ccncc1)S(=O)(=O)c1ccc(C(C)=O)cc1,-28.2
19,O=C(Nc1ccc([N+](=O)[O-])cn1)c1cc(-c2cccc(Br)c2)nc2ccccc12,17.6
20,C=CCn1c(SCc2ccccc2F)nc2cc(C(=O)O)ccc2c1=O,34.1
21,COc1ccc(CN2CCN(C(=O)c3ccccc3F)CC2)c(OC)c1OC,12
22,CC(=O)Nc1ccc(NC(=O)C(C)OC(=O)C(C)SCC(=O)Nc2ccc(F)cc2)cc1 (stereo not shown),12

row,Structure (SMILES),"hERG current change (%, negative = inhibition) at 10uM [%]"
1,O=C(COc1ccccc1)N1CCN(CC2CC3C=CC2C3)CC1.O=C(O)C(=O)O (stereo not shown),-19.3
2,COc1ccc(N2CCN(C(=O)CN3C(=O)NC4(CCCCCC4)C3=O)CC2)cc1,5.58
3,C=CCNc1cc(=O)n(Cc2ccccc2)c(=O)[nH]1,16
4,COc1cc2c(C#N)c(N3CCCC3)nc(N)c2c(N)n1,7.53
5,CCOc1ccc(N(CC(=O)Nc2nccs2)S(=O)(=O)c2c(C)[nH]c(=O)[nH]c2=O)cc1,29
6,CCN(CC)C(=S)Nc1ccc(OC)cc1,37.4
7,CN1CCN(C(=O)CSc2nc3c(c(=O)n(C)c(=O)n3C)n2C)CC1,3.06
8,COC(=O)CN(c1ccccc1F)S(=O)(=O)c1ccccc1,4.5
9,O=C(Oc1ccccc1)c1ccc(-n2cnnn2)cc1,12.7
10,CC(C)CCN(C(=S)Nc1cccc(F)c1)C1CCN(C(C)C)CC1,-42.9
11,CC(C)(C)OC(=O)N1CCN(C(=O)Cn2cc(CCO)nn2)CC1,35.9
12,CCOC(=O)N/N=C(/C)c1ccc(N2C(=O)C3CCCCC3C2=O)cc1 (stereo not shown),20.3
13,CCCN1CNC(=S)N(c2ccc(C)cc2C)C1,9.15
14,Cc1ccc(NC(=O)c2cccc(C(=O)Nc3ccc(C)c(C)c3)n2)cc1C,12.7
15,CC1=C(C(=O)OCc2ccccc2)C(c2cccc(Cl)c2Cl)NC(=O)N1CCCCCC(=O)O (stereo not shown),-16.5
16,Cc1ccc(C(=O)N2CCCC(N3CCN(c4cccc(C(F)(F)F)c4)CC3)C2)s1 (stereo not shown),-51
17,CC(C)C(NC(=O)OCc1ccccc1)C(=O)NCc1ccc(C(=O)O)cc1 (stereo not shown),-23.5
18,CN(/N=C/c1ccccc1)C(=S)c1ccccc1,3.94
19,Cc1csc2nc(CCNS(=O)(=O)c3cccs3)cn12,-1.3
20,CCOC(=O)c1[nH]c2ccccc2c1NC(=O)COC,-4.53
21,COc1ccc(N(C)C(=O)c2cc3c(s2)-c2c(C)cccc2OC3)c(OC)c1,0.641
22,COC1CCCCC1Nc1ccc(C)c(C)c1 (stereo not shown),-5.94

row,Structure (SMILES),"hERG current change (%, negative = inhibition) at 10uM [%]"
1,Cc1nonc1NC(=O)N1CCCC1,-15.2
2,COc1ccc(C(=O)CC(=O)C(=O)Nc2ccc(C)c(C)c2)cc1,-12.2
3,CCCNc1c(NS(=O)(=O)c2ccc(Br)cc2)c(=O)oc2ccccc12,-34.7
4,CC(C)=C(NC(=O)c1ccccc1Br)C(=O)NCCc1nc2ccccc2[nH]1,3.68
5,CCc1noc(C)c1C(=O)Nc1cc(Cl)ccc1N1CCOCC1,-17.1
6,Clc1ccc2c(NCc3cccs3)ncnc2c1,18.5
7,O=C(Nc1ccc(C(=O)O)cc1)/C(=C\c1ccc([N+](=O)[O-])cc1)NC(=O)c1ccc(Br)cc1,7.58
8,Cc1ccc(C(=O)N[C@@H](C)CN2C3=NC[C@H](Cc4ccccc4)N3C[C@H]2Cc2ccc(O)cc2)cc1Br,-82.5
9,COc1cc(-c2nnc(Cn3cc(C(F)(F)F)ccc3=O)o2)cc(OC)c1OC,-3
10,CCN1CCc2c(OCC(=O)Nc3cccc(C)c3C)cccc2C1=O,-17.1
11,O=C(O)/C=C/c1cn(Cc2ccccc2)nc1-c1cccnc1,12
12,CC(=O)N(C1=C(O)c2ccccc2C(=O)C1=O)C1CCCCC1,-2.34
13,COc1ccc2c(c1)[C@@H]1[C@H](CO2)[C@H](c2ccccc2)[C@]2(C)C(=O)NCC(=O)N12,4.48
14,CCN(CC)C(=S)SCC(=O)c1ccc(Br)cc1,13.3
15,CN1CCN(NC(=O)c2cccc(C(F)(F)F)c2)CC1,0.224
16,COc1ccc(-c2[nH]ncc2/C=N\NC(=O)c2cccs2)cc1OC,-22.6
17,CC1CN(S(=O)(=O)c2cccc(C(=O)NCCCn3ccnc3)c2)CC(C)O1.Cl (stereo not shown),6.18
18,CCn1nnc(-c2ccccc2NC(=O)C(F)(F)F)n1,-9.9
19,Cc1ccn2cc(CCNS(=O)(=O)c3ccc(F)c(C(F)(F)F)c3)nc2c1,-18.5
20,Cc1nn(-c2ccccc2)c(Oc2ccccc2)c1C=O,-6.92
21,CCCCOc1ccccc1NC(=O)CSc1nnnn1C(C)(C)C,-21.1
22,CCOC(=O)c1sc(NC(=O)CCCn2nc([N+](=O)[O-])c(Cl)c2C)c(C(=O)OCC)c1C,-3.72
